# Laboratory results: PMC4336329 (PLoS ONE, 2015)
# Out of some 310,000 compounds screened, about 2,200 (0.71%) showed an effect of 50% or more. Effects have a minus sign here. This is one part of the list.
# Biological target: human ether-à-go-go-related gene (hERG) potassium channel (human, UniProt Q12809)
# Assay: primary screen, population patch clamp on CHO cells stably expressing hERG
# Chain of human ether-à-go-go-related gene (hERG) potassium channel (Q12809 whole entry, looked up): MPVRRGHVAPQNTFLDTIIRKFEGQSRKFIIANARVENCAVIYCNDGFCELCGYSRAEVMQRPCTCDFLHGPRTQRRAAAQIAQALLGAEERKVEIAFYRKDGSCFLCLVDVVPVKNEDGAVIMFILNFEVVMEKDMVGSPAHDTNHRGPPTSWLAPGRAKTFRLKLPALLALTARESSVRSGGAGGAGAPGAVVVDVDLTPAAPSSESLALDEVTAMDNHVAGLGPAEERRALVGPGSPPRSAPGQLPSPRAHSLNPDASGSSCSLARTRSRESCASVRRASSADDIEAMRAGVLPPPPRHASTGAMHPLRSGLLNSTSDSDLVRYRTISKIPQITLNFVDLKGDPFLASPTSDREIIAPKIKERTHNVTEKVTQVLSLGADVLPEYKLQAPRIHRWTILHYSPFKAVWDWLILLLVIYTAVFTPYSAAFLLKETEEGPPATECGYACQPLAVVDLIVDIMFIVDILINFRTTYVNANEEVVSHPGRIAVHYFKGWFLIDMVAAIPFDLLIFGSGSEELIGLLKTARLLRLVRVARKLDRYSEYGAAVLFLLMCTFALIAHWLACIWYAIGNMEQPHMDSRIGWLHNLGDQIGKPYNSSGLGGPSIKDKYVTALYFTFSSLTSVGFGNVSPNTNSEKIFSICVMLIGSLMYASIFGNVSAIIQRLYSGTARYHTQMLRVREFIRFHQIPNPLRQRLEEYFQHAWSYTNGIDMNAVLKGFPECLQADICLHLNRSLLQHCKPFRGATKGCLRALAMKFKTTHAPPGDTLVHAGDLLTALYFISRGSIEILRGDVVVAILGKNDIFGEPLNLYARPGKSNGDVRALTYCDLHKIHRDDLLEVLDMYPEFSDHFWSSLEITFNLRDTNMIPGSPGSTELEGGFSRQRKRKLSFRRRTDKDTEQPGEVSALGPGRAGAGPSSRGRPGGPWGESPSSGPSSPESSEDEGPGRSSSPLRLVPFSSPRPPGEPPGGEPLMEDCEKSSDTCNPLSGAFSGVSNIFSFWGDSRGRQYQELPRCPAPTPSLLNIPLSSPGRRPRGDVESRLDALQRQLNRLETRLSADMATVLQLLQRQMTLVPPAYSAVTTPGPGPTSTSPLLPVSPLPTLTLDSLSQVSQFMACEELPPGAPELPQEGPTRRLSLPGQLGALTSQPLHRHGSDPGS
row,SMILES,"hERG current change (%, negative = inhibition) at 1uM [%]"
1,O=C(NCCc1ccc(Cl)cc1)c1ccc(CS(=O)Cc2ccccc2Cl)o1 (stereo not drawn),4.61
2,O=C(NC1CCCC1)c1cc(-c2ccc(F)cc2)on1,10.4
3,Cc1ccc(CC(=O)Nc2ccccc2N2CCOCC2)cc1C,-6.3
4,O=C(O)C1CCCCC1C(=O)Nc1cnn(Cc2ccccc2)c1 (stereo not drawn),3.79
5,Cc1cc(C2=NNC(=NC3CC3)SC2)c(C)n1Cc1ccco1,-0.661
6,CC(OC(=O)CCc1nc2ccccc2c(=O)[nH]1)C(=O)c1ccc(C(C)(C)C)cc1 (stereo not drawn),10.3
7,Cn1c(SCC(=O)NNC(=O)c2ccccc2Br)nnc1C(F)(F)F,12.7
8,CN(Cc1ccon1)Cc1cn(C)nc1-c1ccc(Oc2ccccc2)cc1,12.4
9,COc1ccc(OCC(=O)C2CC2)c(C#N)c1,5.07
10,COC(=O)c1sc(N2CCCCC2)c(C#N)c1N,11.9
11,Cc1cccc(N2CCN(C(=O)C3CCCN(S(=O)(=O)c4cnc[nH]4)C3)CC2C)c1 (stereo not drawn),-2.59
12,COc1ccccc1CNC(=O)COC(=O)c1cccnc1SCC(=O)NCc1ccccc1OC,5.22
13,COCCCn1c(SCC(=O)NC2CCCC2)nnc1-c1ccco1,5.97
14,COc1ccc(CN(C)C(=O)C2CCN(S(=O)(=O)c3cccs3)CC2)cc1F,-5.69
15,CSc1ccccc1NC(=O)c1cc(Cl)sc1Cl,7.18
16,CN1CCN(CC(=O)Nc2c(C(=O)c3ccccc3)oc3ccccc23)CC1,-83.2
17,CCn1cc(C(=O)N(C)c2ccccc2F)c2cc(OC)c(OC)cc2c1=O,18
18,Cc1nn(Cc2ccccc2)c(Cl)c1C(=O)NCCc1ccccc1,6.2
19,CCOC(=O)c1ccc(NC(=O)Cn2c(-c3nonc3N)nc3ccccc32)cc1,0.67
20,Cc1ccc(S(=O)(=O)Nc2c3ccccc3nc(=O)n2-c2ccccc2)cc1,18.4
21,Cc1ccc(F)c(N=Cc2c(O)c3ccccc3oc2=O)c1,13.9
22,CS(=O)(=O)N1c2cccc3cccc(c23)S1(=O)=O,13.7
23,Cc1ccc([N+](=O)[O-])cc1S(=O)(=O)Nc1cccc(-c2ccc(N3CCOCC3)nn2)c1,5.19
24,CC(OC(=O)CCCN=C1NS(=O)(=O)c2ccccc21)C(=O)Nc1ccc(F)c(F)c1F (stereo not drawn),0.447
